PubChem BioAssay AID485294 (National Center for Advancing Translational Sciences (NCATS), 2010)
The campaign covered roughly 370,000 compounds. About 150 (0.041%) were called active. This list was built around the results that the source calls inconclusive (neither active nor inactive); the mix of calls is not that of the screen. The call rests on the fitted dose curve; in most records, active means well fitted inhibition curve with a large enough effect; inconclusive means small, poorly fitted or top-dose-only effect; inactive means flat fitted curve, though single readings scatter. Potencies of inconclusive entries are left out as doubtful fits.

Each compound was assayed against Beta-lactamase (Escherichia coli (strain K12)) (UniProt P00811) (assay: qHTS Inhibitors of AmpC Beta-Lactamase (assay with detergent)). Conditions: AmpC hydrolysis of nitrocefin, absorbance 480 nm, 0.01% Triton; series mostly up to 114 µM.
Procedure, shortened: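 20 mM phosphate pH 7.0 + 0.01% (detergent screen) or 0.0001% Triton X-100; 5.3 nM AmpC reagent; cpd preinc 15 min RT; nitrocefin (800 uM stock) to start; A480 q20 s × 4 min; Activity was normalised to no-enzyme and no-compound control wells.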
Further: nearly all actives have a fitted effect of over 25% in size.
Potency means the concentration at half of the fitted maximal effect; tags describe the fitted curve by direction and shape.

Sequence of UniProt P00811 (P00811 whole entry, looked up): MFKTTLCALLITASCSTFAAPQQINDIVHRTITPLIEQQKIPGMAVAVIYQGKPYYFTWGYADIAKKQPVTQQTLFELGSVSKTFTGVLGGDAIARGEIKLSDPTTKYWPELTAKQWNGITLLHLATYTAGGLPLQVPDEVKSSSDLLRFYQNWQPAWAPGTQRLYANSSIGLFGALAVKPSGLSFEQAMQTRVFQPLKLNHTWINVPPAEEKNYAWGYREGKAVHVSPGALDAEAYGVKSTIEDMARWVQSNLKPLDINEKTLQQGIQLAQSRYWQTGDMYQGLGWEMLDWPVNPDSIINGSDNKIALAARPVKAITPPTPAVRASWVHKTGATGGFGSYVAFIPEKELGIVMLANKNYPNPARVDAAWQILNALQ

| Structure (SMILES) | Potency |
| --- | --- |
| CCN=c1sc(C(=O)NCCc2ccccc2)cc(=O)n1CC | inconclusive [inhibitor, single point] |
| Cc1cc(NC(=O)c2cc(CC(C)C)on2)no1 | inconclusive [inhibitor, partial curve, poor fit] |
| COc1ccc2[nH]c(=O)c(CN(C(=O)c3ccncc3)C(C)C)cc2c1 | inconclusive [inhibitor, partial curve] |
| CCOc1ccc(N(CC(=O)NCc2ccccc2Cl)S(=O)(=O)c2c(C)noc2C)cc1 | inactive |
| Cc1cccc(NC(=O)C2(C)CC3c4ccccc4C2c2ccccc23)c1 (centres undefined) | inconclusive [inhibitor, full curve, poor fit] |
| COC(=O)CSC1=C(C#N)C(c2ccccc2)CC(=O)N1 (centres undefined) | inactive |
| COc1ccc(CN(C)CC2CCCN(CCc3ccc(F)cc3)C2)cc1OC (centres undefined) | inactive |
| N#Cc1ccsc1NC(=O)CSc1ncnc2ccccc12 | inconclusive [inhibitor, full curve, poor fit] |
| CCNS(=O)(=O)c1ccc(CCC(=O)NCc2ccccc2)cc1 | inactive |
| O=C(c1ccc2c(c1)OCCO2)C1CCN(C(=O)c2ccc(F)c(F)c2)CC1 | inactive |
| COc1ccccc1CNC(=O)c1cc(S(=O)(=O)N2CCCCC2)c[nH]1 | inconclusive [inhibitor, partial curve] |
| O=S(=O)(Nc1ccc(Cc2ccncc2)cc1)c1ccc(Cl)cc1 | inactive |
| CN1CCN(C(=O)c2cnn3c(C(F)(F)F)cc(-c4cccs4)nc23)CC1 | inconclusive [inhibitor, partial curve] |
| COc1cc2c(cc1OC)CN(Cc1ccc(C)cc1)CC2 | inconclusive [inhibitor, full curve, poor fit] |
| Cc1nc(C)c(/C(O)=C/c2nc3ccccc3oc2=O)s1 | inactive |
| O=C1CC(c2ccccc2)=NN1c1nc(-c2ccccc2)cs1 | inconclusive [inhibitor, single point] |
| CCOC(=O)c1[nH]c(=O)[nH]c1CSCCO | inactive |
| O=C(NC1CCCCC1)c1ccccc1-c1ccccc1 | inactive |
| C=CCC1(CC=C)CCCN1C(=O)c1cc(COc2ccccc2SC)on1 | inactive |
| Cc1ccc(S(=O)(=O)c2c(C)nn(C(C)(C)C)c2OC(=O)c2ccco2)cc1 | inactive |
| Cn1c(=O)[nH]c(=O)c2c1nc(SCC(=O)Nc1ccccc1)n2Cc1ccccc1 | inconclusive [inhibitor, full curve, poor fit] |
| O=C(O)c1ccc(Nc2cc(Cl)c3nonc3c2[N+](=O)[O-])cc1 | inactive |
| CCOC(=O)N1CCN(C(=O)c2cnc(Nc3ccccc3OC)c3ccccc23)CC1 | inconclusive [inhibitor, full curve, poor fit] |
| CCN(CC)c1cc(NCCO)c([N+](=O)[O-])c2nonc12 | inactive |
| CCOC(=O)/C(C#N)=C1\SS/C(=C(/C#N)C(=O)OCC)S1 | inactive |

| Structure (SMILES) | Potency |
| --- | --- |
| COc1cccc(NC(=O)CSc2nc(=O)n(Cc3ccncc3)c3c2CCC3)c1 | inactive |
| O=C1c2ccccc2CC1Sc1nnc(-c2ccccn2)o1 (centres undefined) | inconclusive [inhibitor, full curve, poor fit] |
| COc1ccc(-n2nc(C(=O)NCC(=O)N3CCC(C)CC3)c3ccccc3c2=O)cc1Cl | inconclusive [inhibitor, full curve] |
| CCC(C)NC(=O)Cn1nc(Cc2ccncc2)c2ccccc2c1=O (centres undefined) | inactive |
| COc1ccccc1NC(=S)Nc1cccc2cnccc12 | inconclusive [inhibitor, full curve, poor fit] |
| COc1ccccc1N=Cc1c(O)c2ccccc2oc1=O | inconclusive [inhibitor, single point] |
| [O-][n+]1ccccc1SC/C=C/c1ccccc1 | inactive |
| CCn1c2ccccc2c2cc(/C=N/NC(=O)c3ccccc3C)ccc21 | inactive |
| CCOC(=O)C1CCN(C(=O)/C=C/c2cccs2)CC1 | inconclusive [inhibitor, full curve, poor fit] |
| CCOC(=O)N1CCC(NS(=O)(=O)c2cc(Br)cnc2N)CC1 | inconclusive [inhibitor, full curve, poor fit] |
| S=c1[nH]nc(-c2ccco2)n1-c1ccccc1Cl | inactive |
| CC(OC(=O)c1cccs1)C(=O)NCCc1ccccc1 (centres undefined) | inconclusive [inhibitor, single point] |
| CCOC(=O)c1ccc2c(c1)C1C=CCC1C(C(=O)O)N2 (centres undefined) | inconclusive [inhibitor, full curve, poor fit] |
| CC(=O)c1ccc(C(=O)N(C)C2CCCN(Cc3ccccc3F)C2)s1 (centres undefined) | inconclusive [inhibitor, full curve] |
| Cc1cccc(N=Nc2c(C)[nH]n(C(N)=S)c2=O)c1C | inconclusive [inhibitor, full curve, poor fit] |
| CCC(=O)Nc1nnc(S(=O)(=O)N(CC)c2ccc(Cl)cc2)s1 | inactive |
| O=C(NCCN1CCOCC1)c1cc(S(=O)(=O)NCCCN2CCCC2=O)ccc1Cl | inconclusive [inhibitor, full curve, poor fit] |
| COc1ccc(OC)c(C2=NOC(C(=O)NCc3ccco3)C2)c1 (centres undefined) | inconclusive [inhibitor, partial curve, poor fit] |
| Cc1ccc(-c2nc3ccccc3s2)cc1NC(=O)c1ccc2c(c1)OCO2 | inactive |
| Cc1ccc(S(=O)(=O)C(CNC(=O)C(=O)NCc2ccccc2C)c2cccs2)cc1 (centres undefined) | inactive |
| CCOC(=O)C(NC(=O)c1ccc(Cl)cc1Cl)(Nc1ccc(C)cc1)C(F)(F)F (centres undefined) | inactive |
| Cc1c([N+](=O)[O-])cc(C(=O)Nc2ccc3ncccc3c2)cc1[N+](=O)[O-] | inactive |
| O=C(CNC1CCCCCC1)Nc1ccc(N2CCCC2)cc1 | inconclusive [inhibitor, full curve, poor fit] |
| COc1ccc2c(c1)C(=O)CC(c1ccc(OC)c(OC)c1)O2 (centres undefined) | inactive |
| CC(C)N1CC2(c3ccccc3)CN(C(C)C)CC(c3ccccc3)(C1)C2=O | inconclusive [inhibitor, partial curve] |

| Structure (SMILES) | Potency |
| --- | --- |
| CN1CCCC(CN2c3ccccc3Sc3ccccc32)C1 (centres undefined) | inactive |
| CCC1(c2ccccc2)NC(=O)N(CC(=O)Nc2ccc(S(=O)(=O)Nc3ncccn3)cc2)C1=O (centres undefined) | inconclusive [inhibitor, full curve] |
| O=C(O)c1cc(S(=O)(=O)N2CCCCCC2)ccc1Cl | inconclusive [inhibitor, full curve] |
| CC(=O)Nc1ccc(S(=O)(=O)N2CCN(C(=O)c3ccco3)CC2)cc1 | inactive |
| COCCOc1ccc(C(F)(F)F)cc1NC(=O)COC(=O)Cc1c[nH]c2ccccc12 | inactive |
| COc1cc(-c2ccccc2)nc2ccccc12 | inconclusive [inhibitor, full curve, poor fit] |
| Cc1c(CCC(=O)NCCCN2CCCC2=O)c(=O)oc2c(C)c(O)ccc12 | inconclusive [inhibitor, full curve, poor fit] |
| O=C(Nc1ccc(Br)cc1)c1ccc(F)c(S(=O)(=O)N2CCc3ccccc32)c1 | inactive |
| O=C(NCc1ccc(C(=O)N2CCC3(CC2)OCCO3)cc1)c1ccc2c(c1)OCO2 | inconclusive [inhibitor, full curve, poor fit] |
| CC(=O)Nc1ccc(SC(C)C(=O)NC2CCCC2)cc1 (centres undefined) | inconclusive [inhibitor, full curve, poor fit] |
| CCCCNS(=O)(=O)c1ccc(C)c(-c2nnc3c4ccccc4c(C)nn23)c1 | inactive |
| Cc1nc(C(=O)NNC(=O)c2ccc(Cl)cc2)cs1 | inactive |
| CCOc1ccccc1NC(=O)N1CCC(NC(=O)c2cccc(C)c2)CC1 | inconclusive [inhibitor, partial curve, poor fit] |
| NC(=O)CC(NC(=O)c1ccccc1)c1ccc(NCc2ccc(F)c(F)c2)c([N+](=O)[O-])c1 (centres undefined) | inconclusive [inhibitor, full curve, poor fit] |
| O=C(/C(=C/O)N=Nc1ccccc1)c1cccs1 | inactive |
| Cc1ccc2[nH]c3c(c2c1)CN(C(C)C)CC3 | inconclusive [inhibitor, partial curve] |
| C/C(CC(=O)Nc1ccccn1)=N\NC(=O)c1ccncc1 | inconclusive [inhibitor, full curve] |
| COc1ccc(C2(CNC(=O)c3ccc(N)cc3)CCCC2)cc1 | inconclusive [inhibitor, partial curve, poor fit] |
| NS(=O)(=O)c1ccc(NC(=O)COc2cccc3ccccc23)cc1 | inactive |
| CC(C)CC1Nc2ncnc(N3CCN(c4ccccc4)CC3)c2N(Cc2ccc(Cl)cc2)C1=O (centres undefined) | inconclusive [inhibitor, partial curve] |
| COc1ccc(S(=O)(=O)N2CCC(C(=O)Nc3cccc(C(C)=O)c3)CC2)cc1 | inconclusive [inhibitor, partial curve] |
| Cn1c(=O)c2c(nc(N3CCOCC3)n2Cc2ccc(Br)cc2)n(C)c1=O | inactive |
| CCOC(=O)C1C(=O)C=C(c2ccc(C)cc2)CC1c1ccco1 (centres undefined) | inconclusive [inhibitor, full curve, poor fit] |
| Cc1c(Cl)cnc(NC(=O)COC(=O)c2ccncc2)c1Cl | inconclusive [inhibitor, full curve, poor fit] |
